Assay results from PubChem BioAssay AID504332 (National Center for Advancing Translational Sciences (NCATS), 2011).
Screen size: about 350,000 compounds; about 31,000 (8.9%) were called active. The shares of active, inactive and inconclusive entries below differ from those in the screen. Calls come from the whole dose curve; as a rule, active = well fitted inhibition curve with a large enough effect; inconclusive = small, poorly fitted or top-dose-only effect; inactive = no such curve, though single readings can be large or run the other way. A potency beside an inconclusive call is a rough fit, not a confirmed value.

molecular target: Histone-lysine N-methyltransferase EHMT2 (Homo sapiens) (UniProt Q96KQ7); assay: qHTS Assay for Inhibitors of Histone Lysine Methyltransferase G9a; details: G9a H3K9 monomethylation, AlphaScreen, 2 h; activity, negative = inhibition: at 59 µM (top of the series) unless noted; note: nearly all actives have a fitted effect of over 75% in size
Summary of the method: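 Compounds were preincubated with 20 nM G9a for 15 min, after which biotinylated H3K9 peptide (500 nM) and SAM (20 uM) started a 2 h room-temperature reaction. Monomethylated product was quantified by antibody-based AlphaScreen chemiluminescence.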
% is set by controls: 0 for no effect and ±100 for the full control effect; potency is the fitted concentration of half-maximal effect; tags give direction and shape of the fitted curve.

Chain of UniProt Q96KQ7 (Q96KQ7 whole entry, looked up): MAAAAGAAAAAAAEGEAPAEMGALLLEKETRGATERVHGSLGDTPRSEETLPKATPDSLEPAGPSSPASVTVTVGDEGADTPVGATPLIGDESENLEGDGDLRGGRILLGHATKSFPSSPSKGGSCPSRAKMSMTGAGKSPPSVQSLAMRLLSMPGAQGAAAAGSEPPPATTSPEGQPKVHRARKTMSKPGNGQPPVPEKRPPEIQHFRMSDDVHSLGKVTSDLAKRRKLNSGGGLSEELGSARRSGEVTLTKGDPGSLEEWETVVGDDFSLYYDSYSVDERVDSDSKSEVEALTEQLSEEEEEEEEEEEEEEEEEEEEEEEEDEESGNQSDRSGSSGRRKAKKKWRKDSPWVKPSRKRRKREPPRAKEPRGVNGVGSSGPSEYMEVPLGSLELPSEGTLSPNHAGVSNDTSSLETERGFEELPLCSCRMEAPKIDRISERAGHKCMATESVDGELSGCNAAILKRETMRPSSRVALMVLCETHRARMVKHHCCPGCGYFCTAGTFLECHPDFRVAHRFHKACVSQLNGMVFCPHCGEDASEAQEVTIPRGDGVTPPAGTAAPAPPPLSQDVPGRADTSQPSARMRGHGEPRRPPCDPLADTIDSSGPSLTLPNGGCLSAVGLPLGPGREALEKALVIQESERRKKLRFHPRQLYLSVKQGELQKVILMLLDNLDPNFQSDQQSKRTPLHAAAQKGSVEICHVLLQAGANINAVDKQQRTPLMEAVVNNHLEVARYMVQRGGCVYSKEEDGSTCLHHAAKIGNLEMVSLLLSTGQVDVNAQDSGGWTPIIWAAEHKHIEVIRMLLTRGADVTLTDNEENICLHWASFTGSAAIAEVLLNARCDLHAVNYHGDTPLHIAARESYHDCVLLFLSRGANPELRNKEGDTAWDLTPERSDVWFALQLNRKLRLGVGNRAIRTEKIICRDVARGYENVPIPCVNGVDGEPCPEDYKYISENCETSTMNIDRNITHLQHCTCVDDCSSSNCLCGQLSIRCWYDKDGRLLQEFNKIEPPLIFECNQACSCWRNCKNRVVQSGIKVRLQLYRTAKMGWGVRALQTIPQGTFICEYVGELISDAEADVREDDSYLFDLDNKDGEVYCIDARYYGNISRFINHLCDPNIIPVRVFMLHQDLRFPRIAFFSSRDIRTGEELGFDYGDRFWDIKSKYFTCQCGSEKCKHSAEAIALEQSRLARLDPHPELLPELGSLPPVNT

Row | SMILES | Potency | activity, negative = inhibition
1 | O=C(Nc1ccc2c(c1)OCO2)Oc1ccccc1 | inconclusive: 11.2 µM [inhibitor, partial curve] | 
2 | Cc1ccc(CNC(=O)C2(C(F)(F)F)C/C(=C\Cc3ccccc3)CCCO2)o1 (configuration not stated) | active: 28.2 µM | 
3 | CNC(=O)c1ccc(CSc2nc3cccnc3n2Cc2cccc(F)c2)cc1 | inactive | 
4 | C=CCSc1ncc(CO)n1Cc1ccccc1 | inactive | 
5 | CC1=C(c2ccc(C)c(C)c2)S(=O)(=O)N=C1N1CCC(C(=O)Nc2ccc(Cl)cc2)CC1 | inconclusive: 7.94 µM [inhibitor, partial curve, poor fit] | 
6 | CCn1c(SCC(=O)Nc2cccc(OC)c2)nc2ccccc2c1=O | inactive | 
7 | COC(=O)C(C)NC(=O)C12CC3CC(CC(C3)C1)C2 (configuration not stated) | inconclusive: 89.1 µM [inhibitor, partial curve, poor fit] | 
8 | O=C(CSc1nc2ccccc2s1)N/N=C/c1ccc(C(=O)O)cc1 | inactive | 
9 | O=S(=O)(Nc1nc2ccccc2nc1NCCN1CCOCC1)c1cccc(Cl)c1 | inconclusive: 79.4 µM [inhibitor, partial curve, poor fit] | 
10 | CN(CC(O)COCc1ccccc1F)C1CCCCC1 (configuration not stated) |  | inactive: 10.8% [at 12.7 µM]
11 | O=C(CN1C(=O)NC2(CCCc3ccccc32)C1=O)NC1CCCCC1 (configuration not stated) |  | inactive: -14.4% [at 2.33 µM]
12 | COC(=O)CCc1c(COC(C)=O)[nH]c(C(=O)OCc2ccccc2)c1C |  | inactive: 18.7% [at 2.33 µM]
13 | COCc1nnc(NS(=O)(=O)c2c(C)cc(C)cc2C)s1 | inconclusive: 31.6 µM [inhibitor, single point] | 
14 | Cc1ccc2nc(SCC(=O)Nc3cc(C(C)(C)C)nn3-c3ccccc3)[nH]c2c1 | inconclusive: 50.1 µM [inhibitor, partial curve, poor fit] | 
15 | CCCCn1c(N)c(N(CCOC)C(=O)c2ccc(-c3cccc(C(F)(F)F)c3)o2)c(=O)[nH]c1=O | inconclusive: 89.1 µM [inhibitor, single point] | 
16 | Cn1cccc1/C=C1\CCC/C(=C\c2cccn2C)C1=O | inconclusive: 3.98 µM [inhibitor, partial curve, poor fit] | 
17 | CCN1C(=O)/C(=C\C=C2/C=CC=CN2CC)SC1=S | active: 10 µM | 
18 | O=C(NC1CCCC1)C1CCN(c2nccs2)CC1 | inactive | 
19 | CN(C)CCCN=C(NO)c1ccc(Cl)cc1Cl | inconclusive: 89.1 µM [inhibitor, single point] | 
20 | CCCc1cc(=O)[nH]c(SCC(=O)N(Cc2ccccc2)C(C)C)n1 | active: 1 µM | 
21 | COc1cc(CN2CCNC(=O)C2CC(=O)N2CCc3ccccc3C2)cc(OC)c1 (configuration not stated) | inconclusive: 50.1 µM [inhibitor, partial curve] | 
22 | CCc1ccc(NS(=O)(=O)c2ccc(C)c(C(=O)N3CCOCC3)c2)cc1 | inconclusive: 89.1 µM [inhibitor, single point] | 
23 | C/C(CCc1oc2c(Br)cc(Br)cc2c1-c1ccc(C)o1)=N\O | inconclusive: 28.2 µM [inhibitor, single point] | 
24 | Cc1ccc(-c2noc(CNCCCN(C)C)n2)cc1 | inconclusive: 79.4 µM [inhibitor, single point] | 

Row | SMILES | Potency | activity, negative = inhibition
25 | Cc1ccc(C(C)(C)c2ccc(C)cc2)cc1 |  | inactive: 15.8% [at 12.7 µM]
26 | Cc1ccc2nc(-c3cccc(Cl)c3)c(Nc3ccc4c(c3)OCO4)n2c1 | inconclusive: 6.31 µM [inhibitor, partial curve, poor fit] | 
27 | Brc1ccc(-c2nnc3sc(CNC4CCCC4)cn23)cc1 | inconclusive: 70.8 µM [inhibitor, partial curve, poor fit] | 
28 | CCCCCC(=O)Nc1ccc(N2CCN(CC)CC2)c(Cl)c1 |  | inactive: 10.1% [at 12.7 µM]
29 | CN(C)c1ccc(NC(=O)CSc2nc3ccccc3c(=O)n2C2CCCCC2)cc1 | active: 7.94 µM | 
30 | CCCCN(CCCC)CCCN1CC(=O)N2[C@@H](Cc3c([nH]c4ccccc34)C2(C)C)C1=O | inactive | 
31 | Cc1ccc2c(Cl)c(C(=O)Nc3cc(C)on3)sc2c1 | inconclusive: 89.1 µM [inhibitor, single point] | 
32 | COc1ccc(Cl)cc1NC(=O)C1CCN(S(=O)(=O)c2ccc3c(c2)CCCN3C(=O)C2CCC2)CC1 | inactive | 
33 | Cn1c(C(=O)O)cc2cc(F)ccc21 | inconclusive: 2 µM [inhibitor, partial curve, poor fit] | 
34 | Cn1c(-c2ccccc2)cnc1SCC(=O)N1CCCc2ccccc21 | inconclusive: 8.91 µM [inhibitor, partial curve, poor fit] | 
35 | CCOC(=O)C1=C(C)NC(=O)NC1c1ccc2c(c1)OCO2 (configuration not stated) | inconclusive: 0.631 µM [inhibitor, full curve, poor fit] | 
36 | Cc1cc(Nc2cccc(C(=O)O)c2)n2ncnc2n1 | inactive | 
37 | Cc1cc(=O)[nH]c2nnc(SCC(=O)Nc3ccc(F)cc3F)n12 | inactive | 
38 | Cc1[nH]nc2c1C(c1ccsc1C)C(C#N)=C(N)O2 (configuration not stated) | active: 79.4 µM | 
39 | N#Cc1c2n(c(=S)n(-c3ccc(F)cc3)c1=O)CCCCC2 | inactive | 
40 | COc1cccc(C(=O)CN2CCN(S(=O)(=O)c3ccc(Br)cc3)CC2)c1 | inconclusive: 25.1 µM [inhibitor, single point] | 
41 | Cc1ccc(NC(=O)N2CCN3CCCCC3C2)cc1F (configuration not stated) | inactive | 
42 | N#Cc1ccc(C(=O)N2CCN(S(=O)(=O)c3ccc(Br)s3)CC2)cc1 | inconclusive: 3.98 µM [inhibitor, partial curve, poor fit] | 
43 | Cc1ccc2c(c1)N(CC(=O)NCCCN1CCCC1)C(=O)CO2 | inconclusive: 89.1 µM [inhibitor, partial curve, poor fit] | 
44 | CN(C)c1ccc(-c2noc(C3CC(=O)N(c4ccc5c(c4)OCCO5)C3)n2)cc1 (configuration not stated) | inactive | 
45 | CCCC(CCC)C(=O)Nc1nnc2n1CCS2 | inconclusive: 31.6 µM [inhibitor, single point] | 
46 | CC1CCCCC1NCC(=O)NCc1ccc(F)cc1 (configuration not stated) | active: 10 µM | 
47 | COc1ccc(CCCn2ncc3c2nc(N)n2nc(-c4ccco4)nc32)cc1 | inconclusive: 22.4 µM [inhibitor, single point] | 
48 | O=C(Nc1nc(-c2ccccn2)cs1)c1ccc(Br)s1 | active: 50.1 µM | 

Row | SMILES | Potency | activity, negative = inhibition
49 | COc1ccc(OC)c(C(=O)NC(CC(N)=O)c2ccc(N3CCN(c4ccccc4)CC3)c([N+](=O)[O-])c2)c1 (configuration not stated) | inconclusive: 79.4 µM [inhibitor, partial curve, poor fit] | 
50 | CCN(Cc1ccccc1)C(=O)CN1C(=O)CSc2ccc(S(=O)(=O)N(CC)CC)cc21 | inactive | 
51 | CCCN(Cc1nnc(-c2ccccc2Cl)o1)C(=O)c1cc([N+](=O)[O-])cc([N+](=O)[O-])c1 | active: 50.1 µM | 
52 | O=C1CC2(CCCC2)C(=O)N1CN1CCN(S(=O)(=O)c2ccc(Cl)c(Cl)c2)CC1 |  | inactive: 7.08% [at 12.7 µM]
53 | O=C(CNC(=O)C12CC3CC(CC(C3)C1)C2)N/N=C\c1ccccn1 | inactive | 
54 | O=C(c1ccco1)N1CCN(c2nc(C(F)(F)F)nc3c2nnn3Cc2ccccc2)CC1 | inconclusive: 39.8 µM [inhibitor, single point] | 
55 | Cc1nc2ccccc2n1Cc1n[nH]c(=S)n1-c1ccc(Cl)cc1 | inconclusive: 20 µM [inhibitor, partial curve, poor fit] | 
56 | CC(C(=O)N(C)Cc1cccc(F)c1)N1CCN(S(=O)(=O)c2ccc3c(c2)OCCCO3)CC1 (configuration not stated) | active: 39.8 µM | 
57 | Oc1c(Cl)cc(Cl)c2c1NCCC2 |  | inconclusive: -120% [inhibitor] [at 12.7 µM]
58 | COCCn1c(C)cc(C(=O)CSc2nncn2-c2ccccc2)c1C | active: 50.1 µM | 
59 | CCc1ccccc1NC(=O)CSc1nc2[nH]c(=O)cc(O)c2s1 | inactive | 
60 | Nc1nc(SCC(=O)NCCC(c2ccccc2)c2ccccc2)n[nH]1 | inactive | 
61 | Cc1ccc(C(=O)Nc2ccc(S(=O)(=O)N3CCCC3)cc2)o1 | inconclusive: 14.1 µM [inhibitor, partial curve, poor fit] | 
62 | COc1cccc2sc(NNC(=O)COc3ccccc3)nc12 | inconclusive: 56.2 µM [inhibitor, partial curve, poor fit] | 
63 | COc1ccccc1C(=O)N1c2ccccc2C(C)(c2ccc(Cl)cc2)CC1(C)C (configuration not stated) | inactive | 
64 | COc1cc(NC(=O)C/C(C)=N/NC(=O)C(=O)NCCO)c(OC)cc1Cl | inactive | 
65 | O=C(CN1C(=O)C(=O)N(Cc2ccco2)C1=O)NC1CCCCC1 | inconclusive: 89.1 µM [inhibitor, single point] | 
66 | COc1c(O)ccc2c1CN1CCc3cc4c(cc3C1C2)OCO4 (configuration not stated) | inconclusive: 10 µM [inhibitor, partial curve, poor fit] | 
67 | Cc1cc(C(=O)COC(=O)CC2Sc3ccccc3NC2=O)c(C)n1-c1cccc(C(F)(F)F)c1 (configuration not stated) | inconclusive: 28.2 µM [inhibitor, single point] | 
68 | COc1ccc(C)cc1NC(=O)C(OC(=O)CNC(=O)c1cccc(F)c1)c1ccccc1 (configuration not stated) | inconclusive: 79.4 µM [inhibitor, single point] | 
69 | O=c1c(C(c2c(O)nc3n(c2=O)CCS3)c2cccc3ccccc23)c(O)nc2n1CCS2 | inconclusive: 31.6 µM [inhibitor, single point] | 
70 | COc1ccc(OC)c(-c2csc(NC(=O)COC(=O)C3(C)CC3(Cl)Cl)n2)c1 (configuration not stated) | inconclusive: 3.16 µM [inhibitor, partial curve, poor fit] | 
71 | Cc1[nH]c(=S)[nH]c(=O)c1Cc1ccccc1 | active: 50.1 µM | 
72 | Cc1ccc(-c2nnn(CC(=O)N(c3ccccc3F)C(C(=O)NC3CCCC3)c3ccncc3)n2)o1 (configuration not stated) | inconclusive: 8.91 µM [inhibitor, partial curve] | 
